Assay results as given in US20220389066A1 (Affibody, published 2022).

B1: ZZA4263, Z(boxB)-L2-Z(boxA)-ABD (designed binder)
chain: AEAKYAKEAWLAEQEIWQLPNLTEAQFQAFILKLIDDPSQSSELLSEAKKLNDSQAPKGAPGGGGSTSAEAKYAKEDWDAFWEIIWLPNLTDAQQRAFIYKLEDDPSQSSELLSEAKKLNDSQAPKASGSLAEAKEAANAELDSYGVSDFYKRLIDKAKTVEGVEALKDAILAALP
notes: Heterodimer of ZH27 and ZH32 with PP013
B2: ZA3812 ([ZH 27]-ASGS-PP013) (designed binder)
chain: AEAKYAKEDWDAFWEIIWLPNLTDAQQRAFIYKLEDDPSQSSELLSEAKKLNDSQAPKASGSLAEAKEAANAELDSYGVSDFYKRLIDKAKTVEGVEALKDAILAALP

Assays:
[1] = biological target: T1, HMGB1(red), fully reduced form of full-length HMGB1 (HMGB1C23hC45hC106h) (rat, UniProt P63159 1-215, all cysteines reduced (C23h, C45h, C106h)); assay: SPR (Biacore 2000); ZZA4263 captured on immobilized HSA, analyte injected 8.3-675 nM, 1.5 mM DTT; 1:1 Langmuir model
T1 construct: Produced by HMGBiotech; also called HMGB1(reduced); b-HMGB1(red)
T1 sequence: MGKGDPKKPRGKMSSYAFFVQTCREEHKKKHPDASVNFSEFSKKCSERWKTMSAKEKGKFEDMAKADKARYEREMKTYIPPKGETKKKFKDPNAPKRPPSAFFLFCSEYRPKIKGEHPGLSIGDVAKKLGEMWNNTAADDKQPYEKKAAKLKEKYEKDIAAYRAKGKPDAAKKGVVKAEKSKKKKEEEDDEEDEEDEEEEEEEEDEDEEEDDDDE
Procedure: (§1) HSA (Albucult®, Novozyme) was diluted to 10 μg/ml in acetate, pH 4.0, and immobilized onto a CM5 sensor chip using a Biacore 2000 instrument. Immobilization was performed by amine chemistry, using amine coupling kit, according to the manufacturer's instructions. The first surface of each chip was activated and deactivated for use as a reference cell (blank surface) during analyte injections. HBS-EP was used as running buffer, supplemented with 1.5 mM DTT when analyzing the binding to HMGB1(red). ZZA4263 was injected at a concentration of 100 nM for 4 minutes over the HSA and the reference sensor chip surfaces at a constant flow rate of 30 μl/min. This was followed by 4 minutes' injection of 0, 8.3, 25, 75, 225 and 675 nM of HMGB1(red), HMGB1(disulfide), HMGB2 (Biorbyt, cat. no. orb180287), HMGB3 (Biorbyt, cat. no. orb180288), SP100 (Biorbyt, cat. no. orb169341), TNF (R&D Systems, cat. no. 210-TA), IL-6 (R&D Systems, cat. no. 206-IL) and IL-1β (R&D Systems, cat. no. 201-LB/CF), respectively. The proteins were allowed to dissociate for 20 minutes before the chip surfaces were regenerated by two 10 second pulses using 10 mM HCl. The reference surface and the buffer sample were subtracted from all curves. The buffer sample was subtracted to adjust for the dissociation of ZZA4263 from HSA. All curves were fitted to a kinetic 1:1 Langmuir model in the BIA Evaluation software to estimate the binding properties (kₐ, kd and KD).
(§2) ZZA4263 was injected and captured on a surface with immobilized HSA followed by concentration series of HMGB1(red), HMGB1(disulfide), HMGB2, HMGB3, SP100, TNF, IL-6 and IL-1β. The highly homologous human proteins HMGB2, HMGB3, SP100 all bind to ZZA4263, although with 17-550 times lower affinity compared to HMGB1(red). No significant binding was detected to any of the other tested proteins involved in the HMGB1 signaling pathway (TNF, IL-6 and IL-1β).

[2] = biological target: T2, HMGB1(disulfide), disulfide linked form of full-length HMGB1 (HMGB1C23-C45C106h) (rat, UniProt P63159 1-215, disulfide C23-C45; C106 reduced); assay: SPR (Biacore 2000); ZZA4263 captured on immobilized HSA, analyte injected 8.3-675 nM; 1:1 Langmuir model
T2 construct: unlabelled in Biacore and Attana; also called b-HMGB1(disulfide)
T2 sequence: T1 sequence
Procedure: as §1, §2

HMGB2 = biological target: T3, HMGB2 (human, UniProt P26583 1-209, limits assumed); assay: as above
T3 construct: Bought protein
T3 sequence (looked up): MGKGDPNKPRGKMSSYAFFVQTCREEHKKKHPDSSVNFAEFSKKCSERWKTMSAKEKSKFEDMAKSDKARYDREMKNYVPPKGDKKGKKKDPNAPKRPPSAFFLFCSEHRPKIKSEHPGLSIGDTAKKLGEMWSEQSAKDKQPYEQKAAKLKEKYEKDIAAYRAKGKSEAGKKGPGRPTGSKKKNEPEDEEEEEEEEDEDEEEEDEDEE
Procedure: as §1, §2

HMGB3 = biological target: T4, HMGB3 (human, UniProt O15347 1-200, limits assumed); assay: as above
T4 construct: Bought protein
T4 sequence (looked up): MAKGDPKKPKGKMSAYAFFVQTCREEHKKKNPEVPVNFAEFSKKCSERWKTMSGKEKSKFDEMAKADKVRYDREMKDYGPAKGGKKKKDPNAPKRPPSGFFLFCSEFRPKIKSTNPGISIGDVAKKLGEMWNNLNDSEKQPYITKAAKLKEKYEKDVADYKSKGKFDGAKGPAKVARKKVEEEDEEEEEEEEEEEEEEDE
Procedure: as §1, §2

[3] = biological target: T5, human serum albumin (HSA) (human, UniProt P02768 25-609); assay: SPR (Biacore 2000); capture on immobilized HSA through the ABD moiety
T5 construct: Immobilized on sensor chips to capture ABD (PP013) fusions
T5 sequence (P02768 25-609 limits assumed): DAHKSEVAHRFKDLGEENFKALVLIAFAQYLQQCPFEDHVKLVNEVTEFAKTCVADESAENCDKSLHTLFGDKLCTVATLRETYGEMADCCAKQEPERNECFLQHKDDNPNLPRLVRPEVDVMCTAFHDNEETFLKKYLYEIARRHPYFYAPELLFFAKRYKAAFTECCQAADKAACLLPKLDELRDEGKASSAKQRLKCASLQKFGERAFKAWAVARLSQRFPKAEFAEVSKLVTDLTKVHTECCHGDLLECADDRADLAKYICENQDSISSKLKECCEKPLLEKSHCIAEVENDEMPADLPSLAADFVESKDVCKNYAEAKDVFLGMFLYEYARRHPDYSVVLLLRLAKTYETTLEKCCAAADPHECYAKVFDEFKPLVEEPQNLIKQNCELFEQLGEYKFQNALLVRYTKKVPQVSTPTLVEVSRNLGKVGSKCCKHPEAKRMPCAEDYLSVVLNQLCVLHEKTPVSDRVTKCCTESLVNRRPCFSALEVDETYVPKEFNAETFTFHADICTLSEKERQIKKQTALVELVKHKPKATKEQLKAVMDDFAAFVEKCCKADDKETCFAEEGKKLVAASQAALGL

[4] = biological target: T6, GST-boxA(red), reduced form of A-box domain of HMGB1 with N-terminal GST tag (human, cysteines reduced); assay: SPR (Biacore 2000); Z-ABD captured on HSA, analyte injected, 2 mM DTT; 1:1 Langmuir model
T6 construct: Used biotinylated (b-GST-boxA(red)) in ELISA; also called b-GST-boxA(red)
Procedure: (§3) Biacore kinetic and specificity analysis: The interactions of the A-box binding Z-ABD polypeptides ZA3812 (SEQ ID NO:35) and ZA3914 (SEQ ID NO:36) with four different HMGB1 variants were analyzed in a Biacore instrument by injecting various concentrations of HMGB1 variants over a surface containing ZA3812 and ZA3914, respectively, captured on immobilized HSA. […] In addition, the interaction of the B-box binding Z-ABD polypeptide ZA3975 (SEQ ID NO:37) was analyzed for binding to HMGB1(red) in the same manner.

[5] = biological target: T1, HMGB1(red), fully reduced form of …; assay: as above
Procedure: as §3

Binder	Kd [1] [nM]	koff [1] [s⁻¹]	kon [1] [M⁻¹ s⁻¹]	Kd [2] [nM]	koff [2] [s⁻¹]	kon [2] [M⁻¹ s⁻¹]	Kd (HMGB2) [nM]	koff (HMGB2) [s⁻¹]	kon (HMGB2) [M⁻¹ s⁻¹]	Kd (HMGB3) [nM]	koff (HMGB3) [s⁻¹]	kon (HMGB3) [M⁻¹ s⁻¹]	binding result [3]	Kd [4] [nM]	koff [4] [s⁻¹]	kon [4] [M⁻¹ s⁻¹]	Kd [5] [nM]	koff [5] [s⁻¹]	kon [5] [M⁻¹ s⁻¹]
B1	0.12	0.00015	1.3e+06	11	0.00054	49000	2	0.00036	180000	66	0.0013	20000							
B2													binds	1.1	7.6e-05	72000	0.81	0.0004	500000
